Experimental data from the supplement of paper PMC10126150.
Values marked as one replicate rest on one cluster of the flow cell; about a third of the high ones do not repeat.

Each sequence was assayed on ATP (assay: switch fluorescence ratio, 500 uM ATP over buffer (Cy3 cluster intensity, sum of 5 cycles each) (fold (ratio)); higher = stronger signal-on switching upon ATP binding; sequences stand for … in TCGTCGGCAGCGTCAGATGTGTATAAGAGACAGTTTTTTTTTTTTTTTTTTTTTTTTT…TC). Conditions: aptamer strand: ATP DNA aptamer (quencher-CACCTGGGGGAGTATTGCGGAGGAAGG + anchor), 100 nM annealed; ATP concentration: 500 uM; one replicate.
Method in brief: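 Switching-strand clusters labelled with Cy3 on a modified Illumina MiSeq flow-cell were annealed to 100 nM quencher-labelled ATP aptamer, imaged in selection buffer, and re-imaged after 15 min with 500 uM ATP at 22 °C. This was done over five cycles with NaOH stripping and re-annealing in between. The fluorescence ratio is summed target-cycle over summed buffer-cycle Cy3 intensity per cluster, averaged per switch-domain sequence, excluding clusters outside 100-1000 RFU.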
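Note: ATP exposure 15 min at 22 °C before imaging.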

Sequence | switch fluorescence ratio
TATGCTTTTT | 1.04
TATGGACGAA | 1
TATGGAGCA | 1.17
TATGGATCTC | 1.01
TATGGCAGAC | 1.14
TATGGCATCC | 1.04
TATGGGACAC | 1.03
TATGGGCGGG | 0.962
TATGGGCTTG | 1
TATGGTCAA | 1.03
TATGGTCGTA | 1.06
TATGTAGGG | 1.02
TATGTCATGC | 1.06
TATGTCCA | 0.983
TATGTCTGCT | 0.995
TATGTCTTGT | 0.974
TATGTGGATG | 1.03
TATGTGTAAT | 0.981
TATGTGTAGT | 0.996
TATGTGTTAA | 1.01
TATGTTAATT | 1.06
TATGTTATAG | 1.03
TATGTTCAGC | 0.978
TATGTTCAGT | 0.996
TATGTTCTTT | 0.992
TATTAAACTG | 1.2

Sequence | switch fluorescence ratio
TATTAATAAT | 1.01
TATTAATAGG | 1.03
TATTAATATG | 1.07
TATTACGAAC | 1.49
TATTAGAGGG | 1.01
TATTAGCTTT | 0.963
TATTAGGATT | 0.993
TATTAGTTAG | 0.995
TATTATACTT | 1.03
TATTATAGGC | 1
TATTATGTAC | 1.06
TATTATTAGA | 0.962
TATTCAACCC | 1.03
TATTCCGCG | 1.31
TATTCCTCT | 1.01
TATTCGGGTG | 1
TATTCGTGCA | 1.04
TATTCGTTGC | 1.02
TATTCTATCG | 1.01
TATTCTCCTT | 1.04
TATTCTTGTC | 0.98
TATTGACACG | 0.971
TATTGATAGT | 0.996
TATTGATCG | 1.02
TATTGATT | 0.972
TATTGCGCGC | 1.39

Sequence | switch fluorescence ratio
TATTGGAGAC | 0.982
TATTGGCTGG | 1.05
TATTGGTCCG | 1.05
TATTGGTTTC | 0.998
TATTTATCGC | 0.954
TATTTCAAGG | 1.03
TATTTCATCA | 0.975
TATTTCCGGA | 0.987
TATTTCTCTC | 1.05
TATTTGA | 0.99
TATTTGATCG | 1.02
TATTTGGTCT | 1.05
TATTTGTGGA | 0.988
TATTTTACGA | 0.995
TATTTTGTTG | 1.01
TATTTTTTC | 0.988
TATTTTTTCA | 1
TCAAACTCAG | 1.02
TCAAAGAC | 1.02
TCAAAGACA | 1.01
TCAAAGTTCT | 0.96
TCAAATAATT | 1.04
TCAACAAATA | 0.995
TCAACAAGAT | 1.61
TCAACCAGTT | 1.02
TCAACCTGCG | 1.16

Sequence | switch fluorescence ratio
TCAAGAAACG | 1.04
TCAAGAAATT | 1.06
TCAAGAATAT | 1.03
TCAAGCAAGT | 1.2
TCAAGTCAGC | 1
TCAAGTGATC | 1.03
TCAAGTGGCG | 1.04
TCAATAGAAG | 0.97
TCAATAGTCT | 1.03
TCAATCACAC | 1.04
TCAATCTGAG | 1.03
TCAATGCAAT | 1.56
TCAATGCATA | 1.08
TCAATGCTA | 1.01
TCAATGGCCT | 1.05
TCAATGTCTG | 1.02
TCACAGTAT | 1.15
TCACATGTTT | 0.987
TCACATTCGT | 1.02
TCACCCTTGC | 1.43
TCACCGTAGA | 1.13
TCACCGTGTG | 1.59
TCACCTAAGC | 1.09
TCACCTAG | 1.06
TCACCTGGCG | 0.981
TCACGAAGAT | 1.03

Sequence | switch fluorescence ratio
TCACGATGGC | 0.996
TCACGCAATG | 3.6
TCACGCCTCC | 1.22
TCACGCTTG | 1.02
TCACGGGGAT | 0.995
TCACTATGG | 1.08
TCACTCTTAT | 1.01
TCACTTAGCT | 1
TCAGAAAA | 0.988
TCAGAACACT | 1.07
TCAGAAGTGG | 0.969
TCAGAATGTC | 1.14
TCAGACGG | 1
TCAGAGTCTA | 1.03
TCAGATGTAG | 1.01
TCAGCAAAGA | 4.32
TCAGCACGCC | 1.13
TCAGCAT | 0.943
TCAGCATCAA | 1.13
TCAGCATCTT | 0.948
TCAGCCCTTT | 0.995
TCAGCCGGCC | 0.985
TCAGCCTCCC | 1.58
TCAGCCTGAC | 2.25
TCAGCGGAGT | 1.01
TCAGCGTTTT | 0.977

Sequence | switch fluorescence ratio
TCAGCTGAAG | 1.04
TCAGCTTAT | 0.991
TCAGCTTGTG | 1.02
TCAGGACAA | 1.02
TCAGGCCCGA | 1.02
TCAGGCGTGG | 0.993
TCAGGCTAAG | 1.02
TCAGGGAAAG | 0.972
TCAGGGAAGA | 0.969
TCAGGGCCTA | 1.05
TCAGGGCTTA | 0.998
TCAGGGTCGG | 1.01
TCAGGTAAGG | 0.989
TCAGGTATCA | 0.992
TCAGGTCCGG | 1.02
TCAGTCCTCG | 0.955
TCAGTGAGGG | 0.979
TCAGTGAGTC | 1.04
TCAGTGCAAC | 1.01
TCAGTGCGAC | 1
TCAGTGTAAT | 1.01
TCAGTTAAAG | 1.01
TCAGTTATGA | 0.981
TCATAAAATT | 0.979
TCATAAATAT | 0.934
TCATAACC | 1.01

Sequence | switch fluorescence ratio
TCATAATGCT | 0.981
TCATAATTAC | 1.11
TCATACCGGC | 1.08
TCATAGATAC | 1.25
TCATAGCGGC | 1.06
TCATAGGGAA | 1.01
TCATAGTAGC | 0.954
TCATATAAGT | 0.991
TCATATGGGT | 0.975
TCATCAGGAA | 1.31
TCATCATTGA | 1.03
TCATCCATAT | 1.04
TCATCCCCGT | 1.16
TCATCGGTA | 1.07
TCATCTCCAA | 1.23
TCATCTGGTT | 0.959
TCATCTTATT | 0.963
TCATGATAAA | 0.959
TCATGCAGTC | 0.981
TCATGGGAGT | 1
TCATGTAGA | 1.02
TCATGTGCC | 1.01
TCATTCCAGT | 1.02
TCATTCCGTT | 1.08
TCATTGAAGA | 0.98
TCATTGACGC | 1.02

Sequence | switch fluorescence ratio
TCATTGCTCG | 0.974
TCATTGCTCT | 0.949
TCATTGGGCG | 1.03
TCATTGGGGC | 0.916
TCATTGTAAT | 0.998
TCATTTAGAC | 1.03
TCATTTGACT | 0.998
TCCAACTTAG | 1.05
TCCAATAGTG | 1.01
TCCAATCTTC | 1.01
TCCAATTAAC | 1.06
TCCAATTCAC | 1.01
TCCACATGTC | 1.07
TCCACCGAGT | 1.25
TCCACGCATG | 1.5
TCCACTAAAA | 1.03
TCCACTAGTC | 1.08
TCCACTATTT | 1.04
TCCACTTAAT | 1.05
